This note sets out measurements from article PMC9345960, “ERK1/2 inhibits Cullin 3/SPOP-mediated PrLZ ubiquitination and degradation to modulate prostate cancer progression” (Cell Death and Differentiation, 2022).

Amino acid sequences for entries named in this document (tags omitted). A change or cut given only in a name is not applied to a line headed by its entry.
UniProt O43791: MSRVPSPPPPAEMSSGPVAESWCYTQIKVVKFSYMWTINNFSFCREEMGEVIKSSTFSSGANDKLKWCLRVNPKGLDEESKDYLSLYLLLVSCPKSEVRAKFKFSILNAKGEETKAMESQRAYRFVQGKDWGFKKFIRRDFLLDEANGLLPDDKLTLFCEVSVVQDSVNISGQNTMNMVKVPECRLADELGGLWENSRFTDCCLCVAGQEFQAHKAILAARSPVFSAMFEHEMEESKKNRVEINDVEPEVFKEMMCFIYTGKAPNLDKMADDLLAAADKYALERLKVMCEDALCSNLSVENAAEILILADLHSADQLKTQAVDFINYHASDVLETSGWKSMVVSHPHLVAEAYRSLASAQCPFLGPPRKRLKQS
UniProt P27361: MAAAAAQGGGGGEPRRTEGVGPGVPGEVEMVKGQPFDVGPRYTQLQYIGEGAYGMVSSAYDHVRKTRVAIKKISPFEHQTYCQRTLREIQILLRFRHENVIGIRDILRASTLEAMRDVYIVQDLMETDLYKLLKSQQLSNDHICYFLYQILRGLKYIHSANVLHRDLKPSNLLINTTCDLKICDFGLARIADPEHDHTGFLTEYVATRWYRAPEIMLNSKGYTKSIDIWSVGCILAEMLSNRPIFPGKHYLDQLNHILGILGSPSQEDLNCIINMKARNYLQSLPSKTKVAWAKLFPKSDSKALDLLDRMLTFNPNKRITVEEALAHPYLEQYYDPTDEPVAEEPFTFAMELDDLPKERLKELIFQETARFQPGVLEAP
UniProt P28482: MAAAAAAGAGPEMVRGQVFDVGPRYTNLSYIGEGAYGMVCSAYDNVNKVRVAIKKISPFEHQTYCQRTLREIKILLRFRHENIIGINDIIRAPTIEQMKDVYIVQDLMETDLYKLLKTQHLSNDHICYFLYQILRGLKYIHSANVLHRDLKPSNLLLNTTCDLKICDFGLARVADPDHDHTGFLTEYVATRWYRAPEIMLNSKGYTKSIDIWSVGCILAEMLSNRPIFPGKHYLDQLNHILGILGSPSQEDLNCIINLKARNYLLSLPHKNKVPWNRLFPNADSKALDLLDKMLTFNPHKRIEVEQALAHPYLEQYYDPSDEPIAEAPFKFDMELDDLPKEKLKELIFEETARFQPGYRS
UniProt Q13617: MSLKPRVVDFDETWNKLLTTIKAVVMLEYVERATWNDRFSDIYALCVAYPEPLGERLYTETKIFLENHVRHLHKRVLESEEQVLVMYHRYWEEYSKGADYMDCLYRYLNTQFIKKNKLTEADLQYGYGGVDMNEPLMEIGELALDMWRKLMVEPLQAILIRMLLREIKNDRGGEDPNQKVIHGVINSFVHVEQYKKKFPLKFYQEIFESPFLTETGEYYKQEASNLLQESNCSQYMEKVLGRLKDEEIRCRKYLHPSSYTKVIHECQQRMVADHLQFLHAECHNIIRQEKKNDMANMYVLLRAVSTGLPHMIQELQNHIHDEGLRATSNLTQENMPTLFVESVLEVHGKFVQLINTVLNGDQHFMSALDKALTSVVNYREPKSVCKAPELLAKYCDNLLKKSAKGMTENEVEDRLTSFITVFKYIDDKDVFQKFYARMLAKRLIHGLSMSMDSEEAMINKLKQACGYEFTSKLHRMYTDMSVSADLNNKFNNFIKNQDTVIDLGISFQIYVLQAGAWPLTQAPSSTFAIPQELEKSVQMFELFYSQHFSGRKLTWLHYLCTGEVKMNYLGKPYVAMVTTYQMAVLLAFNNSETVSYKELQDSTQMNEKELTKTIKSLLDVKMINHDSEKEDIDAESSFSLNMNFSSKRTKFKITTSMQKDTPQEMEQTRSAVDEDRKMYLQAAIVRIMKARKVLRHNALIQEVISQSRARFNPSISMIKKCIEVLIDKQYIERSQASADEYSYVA
UniProt Q93034: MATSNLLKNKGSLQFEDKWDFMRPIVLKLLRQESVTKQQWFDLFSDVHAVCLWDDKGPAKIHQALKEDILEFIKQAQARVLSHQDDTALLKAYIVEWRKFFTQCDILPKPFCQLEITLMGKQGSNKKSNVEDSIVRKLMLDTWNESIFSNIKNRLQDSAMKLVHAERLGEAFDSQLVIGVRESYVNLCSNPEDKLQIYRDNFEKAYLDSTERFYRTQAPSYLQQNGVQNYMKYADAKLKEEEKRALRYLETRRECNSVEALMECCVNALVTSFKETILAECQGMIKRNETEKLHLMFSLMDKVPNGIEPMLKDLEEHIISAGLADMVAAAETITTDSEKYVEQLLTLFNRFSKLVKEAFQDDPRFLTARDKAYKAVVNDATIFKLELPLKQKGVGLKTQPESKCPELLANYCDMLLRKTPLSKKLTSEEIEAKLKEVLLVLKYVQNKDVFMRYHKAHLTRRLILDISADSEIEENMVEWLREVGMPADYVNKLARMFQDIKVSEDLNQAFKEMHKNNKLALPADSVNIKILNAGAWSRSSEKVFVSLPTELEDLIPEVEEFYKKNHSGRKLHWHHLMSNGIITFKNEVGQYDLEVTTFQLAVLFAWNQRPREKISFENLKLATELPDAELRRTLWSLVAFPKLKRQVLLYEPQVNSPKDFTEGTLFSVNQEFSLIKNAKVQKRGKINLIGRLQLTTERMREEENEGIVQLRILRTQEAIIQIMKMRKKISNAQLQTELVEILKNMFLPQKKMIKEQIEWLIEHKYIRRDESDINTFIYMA
UniProt Q13616: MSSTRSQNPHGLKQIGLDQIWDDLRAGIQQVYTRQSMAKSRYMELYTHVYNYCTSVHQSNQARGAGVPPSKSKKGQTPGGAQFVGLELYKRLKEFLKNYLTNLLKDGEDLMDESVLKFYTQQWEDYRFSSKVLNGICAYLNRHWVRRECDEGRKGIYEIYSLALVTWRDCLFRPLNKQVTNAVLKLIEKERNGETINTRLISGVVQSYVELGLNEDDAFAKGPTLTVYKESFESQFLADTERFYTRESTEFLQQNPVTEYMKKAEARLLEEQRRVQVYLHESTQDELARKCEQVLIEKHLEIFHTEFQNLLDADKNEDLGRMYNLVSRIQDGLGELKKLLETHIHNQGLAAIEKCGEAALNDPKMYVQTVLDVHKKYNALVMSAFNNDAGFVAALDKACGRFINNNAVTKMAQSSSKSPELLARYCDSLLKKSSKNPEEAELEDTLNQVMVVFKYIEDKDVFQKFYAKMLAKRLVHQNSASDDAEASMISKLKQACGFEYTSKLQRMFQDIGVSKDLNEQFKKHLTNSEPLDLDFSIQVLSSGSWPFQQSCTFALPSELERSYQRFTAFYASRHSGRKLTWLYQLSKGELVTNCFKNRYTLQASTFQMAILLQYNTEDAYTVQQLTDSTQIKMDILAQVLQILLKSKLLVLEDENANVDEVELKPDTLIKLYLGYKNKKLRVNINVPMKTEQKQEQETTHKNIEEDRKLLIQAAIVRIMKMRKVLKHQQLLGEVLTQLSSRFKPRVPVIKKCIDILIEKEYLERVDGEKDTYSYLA
UniProt Q13620: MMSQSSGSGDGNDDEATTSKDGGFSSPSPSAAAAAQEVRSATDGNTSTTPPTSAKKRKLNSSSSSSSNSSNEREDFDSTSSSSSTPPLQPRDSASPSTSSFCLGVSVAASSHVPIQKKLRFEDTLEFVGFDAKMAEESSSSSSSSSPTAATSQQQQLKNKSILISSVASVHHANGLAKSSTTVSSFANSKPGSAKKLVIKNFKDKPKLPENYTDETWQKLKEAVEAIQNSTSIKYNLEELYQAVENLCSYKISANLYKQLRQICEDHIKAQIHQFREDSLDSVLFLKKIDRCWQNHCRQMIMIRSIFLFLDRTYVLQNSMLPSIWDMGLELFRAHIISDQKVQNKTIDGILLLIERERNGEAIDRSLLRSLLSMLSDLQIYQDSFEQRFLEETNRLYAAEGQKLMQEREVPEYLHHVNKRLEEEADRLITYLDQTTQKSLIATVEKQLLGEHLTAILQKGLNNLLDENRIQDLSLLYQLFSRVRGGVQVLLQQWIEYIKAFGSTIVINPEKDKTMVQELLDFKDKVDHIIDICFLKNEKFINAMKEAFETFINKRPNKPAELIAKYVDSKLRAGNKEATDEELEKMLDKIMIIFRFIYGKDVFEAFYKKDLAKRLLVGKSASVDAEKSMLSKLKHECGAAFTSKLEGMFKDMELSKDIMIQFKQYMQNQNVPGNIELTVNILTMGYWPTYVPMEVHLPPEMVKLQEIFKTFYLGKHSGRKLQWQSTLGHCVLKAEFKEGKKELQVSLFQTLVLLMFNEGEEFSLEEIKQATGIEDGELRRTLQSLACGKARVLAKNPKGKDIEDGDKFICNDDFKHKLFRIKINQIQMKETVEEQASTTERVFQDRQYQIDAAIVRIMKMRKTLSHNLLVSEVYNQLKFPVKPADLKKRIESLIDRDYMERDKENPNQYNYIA
UniProt Q13619: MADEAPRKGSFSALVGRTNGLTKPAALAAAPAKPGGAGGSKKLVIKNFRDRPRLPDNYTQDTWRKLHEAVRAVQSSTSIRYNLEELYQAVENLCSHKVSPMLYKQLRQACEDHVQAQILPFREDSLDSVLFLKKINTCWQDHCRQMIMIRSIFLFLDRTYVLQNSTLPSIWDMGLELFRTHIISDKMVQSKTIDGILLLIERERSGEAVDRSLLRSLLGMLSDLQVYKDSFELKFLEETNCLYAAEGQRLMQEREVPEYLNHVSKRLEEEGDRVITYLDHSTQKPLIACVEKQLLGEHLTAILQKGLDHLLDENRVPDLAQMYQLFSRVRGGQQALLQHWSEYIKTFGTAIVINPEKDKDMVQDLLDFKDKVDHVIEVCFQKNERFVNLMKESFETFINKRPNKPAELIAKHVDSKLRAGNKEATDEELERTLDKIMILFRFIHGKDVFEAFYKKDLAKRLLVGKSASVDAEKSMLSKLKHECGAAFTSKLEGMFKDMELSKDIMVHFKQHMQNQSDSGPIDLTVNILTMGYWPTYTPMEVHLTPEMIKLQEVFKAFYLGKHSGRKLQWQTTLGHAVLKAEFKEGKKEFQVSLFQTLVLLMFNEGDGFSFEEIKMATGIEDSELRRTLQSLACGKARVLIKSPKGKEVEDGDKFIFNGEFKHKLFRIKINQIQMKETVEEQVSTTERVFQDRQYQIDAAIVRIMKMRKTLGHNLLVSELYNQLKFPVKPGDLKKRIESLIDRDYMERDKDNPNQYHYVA

For assay [1], the target named is T1, biotinylated S40A-mutated PrLZ peptide (30-42).
T1 sequence (peptide, biotinylated (position not stated)): SPSGNSSPPGAPT
Kind of assay: pull-down; biotinylated PrLZ peptide pull-down from WCL of 293T cells transfected with HA-SPOP (Fig. 4k); only the target purified.

Assay [2] addresses T2, biotinylated WT-PrLZ peptide (30-42).
T2 sequence (peptide, biotinylated (position not stated)): SPSGNSSPPGSPT
The assay is described as above.

The target in another assay is T3, GST-PrLZ 1-46 (UniProt P55327).
T3 sequence: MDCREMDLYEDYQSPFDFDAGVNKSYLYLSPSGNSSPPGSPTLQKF
Put plainly: co-IP; immunoprecipitation assay, Fig. S4a (legend not shown).

In assay [3] the target is T4, Flag-PrLZ (Prostate Leucine Zipper), wild type (UniProt P55327).
T4 sequence: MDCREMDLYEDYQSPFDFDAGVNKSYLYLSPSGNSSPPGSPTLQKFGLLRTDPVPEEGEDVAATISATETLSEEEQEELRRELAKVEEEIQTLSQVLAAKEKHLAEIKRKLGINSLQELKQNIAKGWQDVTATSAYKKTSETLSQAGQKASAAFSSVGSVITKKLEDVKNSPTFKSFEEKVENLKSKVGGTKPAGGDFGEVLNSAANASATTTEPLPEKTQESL
Put plainly: co-IP; anti-Flag agarose IP (4 h, 4 °C, EBC lysis buffer) from 293T cells transfected with Flag-PrLZ constructs and Myc-Cullin 3 or HA-SPOP constructs (Figs. 1d, 3b, 4d, 4g, 5b, 5k, 6d); in some panels 20 μM MG132 for 6 h, SCH772984 (3 μM) or IL-6 (50 ng/ml, 48 h) before harvest.

For another assay, the target named is T5, Flag-PrLZ S40D (UniProt P55327).
T5 sequence: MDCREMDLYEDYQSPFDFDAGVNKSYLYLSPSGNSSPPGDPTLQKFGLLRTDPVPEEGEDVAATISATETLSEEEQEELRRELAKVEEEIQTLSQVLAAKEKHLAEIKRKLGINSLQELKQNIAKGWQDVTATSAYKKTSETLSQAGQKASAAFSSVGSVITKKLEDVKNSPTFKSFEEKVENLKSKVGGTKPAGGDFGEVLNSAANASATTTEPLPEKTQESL
The description is as above.

Another assay has as its target HA-SPOP Y87C (UniProt O43791). Put plainly: co-IP; anti-HA agarose IP (4 h, 4 °C, EBC lysis buffer) from transfected 293T cells: HA-PrLZ with Flag-tagged BTB proteins (Fig. 2a), HA-SPOP WT or mutants with Flag-PrLZ (Fig. 3d), HA-ERK1 or HA-ERK2 with Flag-PrLZ (Fig. 5e); in some panels 20 μM MG132 for 6 h.
The target in the next assay is HA-SPOP F102C (UniProt O43791). The assay is described as above.
The target in another assay is HA-ERK1 (UniProt P27361). The assay is described as above.
The target of the next assay is HA-SPOP W131G (UniProt O43791). Described as above.
The next assay addresses HA-ERK2 (UniProt P28482). The description is as above.
The target of a further assay is Myc-Cullin 2 (UniProt Q13617). Kind of assay: co-IP; anti-Myc IP from 293T cells transfected with Flag-PrLZ and Myc-tagged Cullins (Fig. 1c).
For a further assay, the target named is Myc-Cullin 5 (UniProt Q93034). Described as above.
The target of the next assay is Myc-Cullin 1 (UniProt Q13616). The description is as above.
For a further assay, the target named is Myc-Cullin 4B (UniProt Q13620). The description is as above.
The target in the next assay is Myc-Cullin 4A (UniProt Q13619). The description is as above.

Results are given in words; binding and its absence hold for the method and conditions named. Binding seen in cells or lysates may run through a third protein. Some binding calls cover weakened binding; strength is not graded here. For part of these data: Tags and fused reporters may be left off the sequences shown.

With “HA-SPOP, wild type (from UniProt O43791 1-374)”, the binding entry is “no binding” in [1]; “binds” in assay [2]; “binds” in the assay with GST-PrLZ 1-46; “binds” in [3]; “no binding” in the assay with Flag-PrLZ S40D.

B1: Flag-PrLZ (Prostate Leucine Zipper), wild type (protein, UniProt P55327 1-224)
chain: MDCREMDLYEDYQSPFDFDAGVNKSYLYLSPSGNSSPPGSPTLQKFGLLRTDPVPEEGEDVAATISATETLSEEEQEELRRELAKVEEEIQTLSQVLAAKEKHLAEIKRKLGINSLQELKQNIAKGWQDVTATSAYKKTSETLSQAGQKASAAFSSVGSVITKKLEDVKNSPTFKSFEEKVENLKSKVGGTKPAGGDFGEVLNSAANASATTTEPLPEKTQESL
For B1, the binding entry with HA-SPOP Y87C is given as “no binding”; with HA-SPOP F102C, “no binding”; with HA-ERK1, “binds”; with HA-SPOP W131G, “no binding”; with HA-ERK2, “binds”; with Myc-Cullin 2, “no binding”. Further, the binding entry was “no binding” in the assay with Myc-Cullin 5, “binds” in the assay with Myc-Cullin 1, “no binding” in the assay with Myc-Cullin 4B and “no binding” in the assay with Myc-Cullin 4A.
